Source: patent US10299477B2 (priority 2015, dated 2019)

Assays:
Format in all cases: in vivo
[1] = test system: Alternaia brassicicola; test: Test Example C: Alternaria sooty spot on cabbage; conditions: for Test C (control value class, Alternaria sooty spot on cabbage): in vivo; for Test C control value (Alternaria sooty spot on cabbage): preventive, control value class
Source text: [Test Example C] Alternaria Sooty Spot on Cabbage
Seeds of a test plant (cabbage variety: Shikidori) were planted followed by cultivating until the cotyledons extended.

[2] = test system: Puccinia recondita; test: Test Example E: Brown rust on wheat; conditions: for Test E (control value class, brown rust on wheat): in vivo; for Test E control value (brown rust on wheat): preventive, control value class
Source text: [Test Example E] Brown Rust on Wheat

[3] = test system: Botrytis cinerea; test: Test Example B: Gray mold on tomato; conditions: for Test B (control value class, gray mold on tomato): in vivo; for Test B control value (gray mold on tomato): preventive, control value class
Source text: [Test Example B] Gray Mold on Tomato
Seeds of a test plant (tomato variety: Oogata Fukuju) were planted followed by cultivating until three to five first leaves (true leaves) appeared.

[4] = test system: Plasmopara viticola; test: Test Example G: Downy mildew on vine; conditions: for Test G (control value class, downy mildew on vine): 250 ppm, sprayed 2.5 ml/pot before inoculation; for Test G (control value class): 250 ppm spray; for Test G control value (downy mildew on vine): 250 ppm spray (2.5 ml/pot), preventive, control value class
Source text: [Test Example G] Downy Mildew on Vine
Seeds of a test plant (grape variety: Neomuscat) were planted followed by cultivating until three to four first leaves appeared. […] After the sprayed dilutions were dried, a zoosporangia suspension (1-2×10^4 zoosporangia/ml) of Plasmopara viticola was inoculated to the plants by spraying.

[5] = test system: Blumeria graminis f sp. hordei; test: Test Example D: Powdery mildew on barley; conditions: for Test D (control value class, powdery mildew on barley): in vivo; for Test D control value (powdery mildew on barley): preventive, control value class
Source text: [Test Example D] Powdery Mildew on Barley
After the sprayed dilutions were dried, conidia of Blumeria graminis f sp. hordei were inoculated to the plants by shaking off.

[6] = evaluated 7-10 days after inoculation
[7] = Alternaria sooty spot on cabbage, 250 ppm spray
[8] = brown rust on wheat, Puccinia recondita, 250 ppm spray
[9] = gray mold on tomato, Botrytis cinerea, 250 ppm spray
[10] = downy mildew on vine, Plasmopara viticola, 7-10 days after inoculation
[11] = powdery mildew on barley, 250 ppm spray
[12] = Alternaria sooty spot on cabbage, control value=100{1-(n/3)}
[13] = Brown rust on wheat, control value=100{1-(n/3)}
[14] = Gray mold on tomato, control value=100{1-(n/3)}
[15] = Downy mildew on vine, 2.5 ml/pot, evaluated 7-10 days after inoculation
[16] = Powdery mildew on barley, control value=100{1-(n/3)}

Cn1c(-c2c(F)cc(F)cc2F)c(-c2ccccc2Cl)cc(Br)c1=O [Compound 720]
Test C (control value class, Alternaria sooty spot on cabbage) [1]: H (H shows more than 50% of control values)
Test E (control value class, brown rust on wheat) [2]: H (H shows more than 50% of control values)
Test B (control value class, gray mold on tomato) [3]: H (H shows more than 50% of control values)
Test G (control value class, downy mildew on vine) [4, 6]: H (H shows more than 50% of control values)
Test D (control value class, powdery mildew on barley) [5]: H (H shows more than 50% of control values)

CCn1c(-c2c(F)cc(F)cc2F)c(-c2cc(F)ccc2Cl)ccc1=O [Compound 738]
Test C (control value class, Alternaria sooty spot on cabbage) [1]: H (H shows more than 50% of control values)
Test E (control value class, brown rust on wheat) [2]: H (H shows more than 50% of control values)
Test B (control value class, gray mold on tomato) [3]: H (H shows more than 50% of control values)
Test G (control value class, downy mildew on vine) [4, 6]: L (L shows 50% or less of control values)
Test D (control value class, powdery mildew on barley) [5]: H (H shows more than 50% of control values)

CCn1c(-c2c(F)cc(F)cc2F)c(-c2ccccc2Cl)cc(Cl)c1=O [Compound 421]
Test C (control value class) [1, 7]: H (H shows more than 50% of control values)
Test E (control value class) [2, 8]: H (H shows more than 50% of control values)
Test B (control value class) [3, 9]: H (H shows more than 50% of control values)
Test G (control value class) [4, 10]: L (L shows 50% or less of control values)
Test D (control value class) [5, 11]: H (H shows more than 50% of control values)

CCn1c(-c2c(F)cc(F)cc2F)c(-c2cccc(OCC#N)c2Cl)cc(Cl)c1=O [Compound 810]
Test C (control value class) [1, 12]: H (H shows more than 50% of control values)
Test E (control value class) [2, 13]: H (H shows more than 50% of control values)
Test B (control value class) [3, 14]: H (H shows more than 50% of control values)
Test G (control value class) [4, 15]: H (H shows more than 50% of control values)
Test D (control value class) [5, 16]: L (L shows 50% or less of control values)

COc1ccc(-c2cc(C)c(=O)n(C)c2-c2c(F)cccc2F)c(Cl)c1 [Compound 749]
Test C (control value class) [1, 12]: H (H shows more than 50% of control values)
Test E (control value class) [2, 13]: H (H shows more than 50% of control values)
Test B (control value class) [3, 14]: H (H shows more than 50% of control values)
Test G (control value class) [4, 15]: L (L shows 50% or less of control values)
Test D (control value class) [5, 16]: L (L shows 50% or less of control values)

CCn1c(-c2c(F)cccc2F)c(-c2cccc(OC(F)(F)F)c2)ccc1=O [Compound 217]
Test C control value (Alternaria sooty spot on cabbage) ([1]; 250 ppm spray): H (H shows more than 50% of control values)
Test E control value (brown rust on wheat) ([2]; 250 ppm spray): H (H shows more than 50% of control values)
Test B control value (gray mold on tomato) ([3]; 250 ppm spray): L (L shows 50% or less of control values)
Test G control value (downy mildew on vine) ([4]; 7-10 days after inoculation): H (H shows more than 50% of control values)
Test D control value (powdery mildew on barley) ([5]; 250 ppm spray): H (H shows more than 50% of control values)

Cc1cc(-c2ccc(F)cc2Cl)c(-c2c(F)cc(F)cc2F)n(C)c1=O [Compound 613]
Test C (control value class, Alternaria sooty spot on cabbage) [1]: H (H shows more than 50% of control values)
Test E (control value class, brown rust on wheat) [2]: H (H shows more than 50% of control values)
Test B (control value class, gray mold on tomato) [3]: H (H shows more than 50% of control values)
Test G (control value class, downy mildew on vine) [4, 6]: L (L shows 50% or less of control values)
Test D (control value class, powdery mildew on barley) [5]: H (H shows more than 50% of control values)

CCn1c(-c2c(F)cccc2F)c(-c2cc(OCC(F)F)ccc2Cl)ccc1=O [Compound 277]
Test C control value (Alternaria sooty spot on cabbage) ([1]; 250 ppm spray): H (H shows more than 50% of control values)
Test E control value (brown rust on wheat) ([2]; 250 ppm spray): H (H shows more than 50% of control values)
Test B control value (gray mold on tomato) ([3]; 250 ppm spray): H (H shows more than 50% of control values)
Test G control value (downy mildew on vine) ([4]; 7-10 days after inoculation): H (H shows more than 50% of control values)
Test D control value (powdery mildew on barley) ([5]; 250 ppm spray): H (H shows more than 50% of control values)

CCn1c(-c2c(F)cccc2F)c(-c2cc(O)ccc2Cl)ccc1=O [Compound 234, 5-(2-chloro-5-hydroxyphenyl)-6-(2,6-difluorophenyl)-1-ethylpyridine-2(1H)-one]
Test C control value (Alternaria sooty spot on cabbage) ([1]; 250 ppm spray): H (H shows more than 50% of control values)
Test E control value (brown rust on wheat) ([2]; 250 ppm spray): H (H shows more than 50% of control values)
Test B control value (gray mold on tomato) ([3]; 250 ppm spray): H (H shows more than 50% of control values)
Test G control value (downy mildew on vine) ([4]; 7-10 days after inoculation): H (H shows more than 50% of control values)
Test D control value (powdery mildew on barley) ([5]; 250 ppm spray): L (L shows 50% or less of control values)

CCn1c(-c2c(F)cc(OC)cc2F)c(-c2ccccc2F)ccc1=O [Compound 530]
Test C (control value class) [1, 7]: H (H shows more than 50% of control values)
Test E (control value class) [2, 8]: H (H shows more than 50% of control values)
Test B (control value class) [3, 9]: H (H shows more than 50% of control values)
Test G (control value class) [4, 10]: H (H shows more than 50% of control values)
Test D (control value class) [5, 11]: H (H shows more than 50% of control values)

CCn1c(-c2c(F)cc(F)cc2F)c(-c2ccc(OC)cc2Cl)ccc1=O [Compound 742]
Test C (control value class, Alternaria sooty spot on cabbage) [1]: H (H shows more than 50% of control values)
Test E (control value class, brown rust on wheat) [2]: H (H shows more than 50% of control values)
Test B (control value class, gray mold on tomato) [3]: H (H shows more than 50% of control values)
Test G (control value class, downy mildew on vine) [4, 6]: H (H shows more than 50% of control values)
Test D (control value class, powdery mildew on barley) [5]: H (H shows more than 50% of control values)

CCOc1cccc(-c2cc(Cl)c(=O)n(CC)c2-c2c(F)cc(F)cc2F)c1Cl [Compound 809]
Test C (control value class) [1, 12]: H (H shows more than 50% of control values)
Test E (control value class) [2, 13]: H (H shows more than 50% of control values)
Test B (control value class) [3, 14]: H (H shows more than 50% of control values)
Test G (control value class) [4, 15]: L (L shows 50% or less of control values)
Test D (control value class) [5, 16]: L (L shows 50% or less of control values)

CCOc1ccc(Cl)c(-c2ccc(=O)n(CC)c2-c2c(F)cccc2F)c1 [Compound 99]
Test C control value ([1]; Alternaria sooty spot on cabbage): H (H shows more than 50% of control values)
Test E control value ([2]; Brown rust on wheat): H (H shows more than 50% of control values)
Test B control value ([3]; Gray mold on tomato): H (H shows more than 50% of control values)
Test G control value ([4]; Downy mildew on vine, 250 ppm sprayed before inoculation, 7-10 days after inoculation): H (H shows more than 50% of control values)
Test D control value ([5]; Powdery mildew on barley): H (H shows more than 50% of control values)

Cn1c(-c2c(F)cccc2F)c(-c2cccc(F)c2Cl)ccc1=O [Compound 508]
Test C (control value class) [1, 7]: H (H shows more than 50% of control values)
Test E (control value class) [2, 8]: H (H shows more than 50% of control values)
Test B (control value class) [3, 9]: H (H shows more than 50% of control values)
Test G (control value class) [4, 10]: H (H shows more than 50% of control values)
Test D (control value class) [5, 11]: H (H shows more than 50% of control values)

CCCn1c(-c2c(F)cccc2F)c(-c2cc(OC)ccc2Cl)ccc1=O [Compound 399]
Test C (control value class) [1, 7]: H (H shows more than 50% of control values)
Test E (control value class) [2, 8]: H (H shows more than 50% of control values)
Test B (control value class) [3, 9]: H (H shows more than 50% of control values)
Test G (control value class) [4, 10]: H (H shows more than 50% of control values)
Test D (control value class) [5, 11]: H (H shows more than 50% of control values)

CCOc1cc(F)c(-c2c(-c3ccccc3Cl)ccc(=O)n2C)c(F)c1 [Compound 730]
Test C (control value class, Alternaria sooty spot on cabbage) [1]: H (H shows more than 50% of control values)
Test E (control value class, brown rust on wheat) [2]: H (H shows more than 50% of control values)
Test B (control value class, gray mold on tomato) [3]: H (H shows more than 50% of control values)
Test G (control value class, downy mildew on vine) [4, 6]: L (L shows 50% or less of control values)
Test D (control value class, powdery mildew on barley) [5]: H (H shows more than 50% of control values)

CCn1c(-c2c(F)cc(F)cc2F)c(-c2ccccc2Cl)cc(C)c1=O [Compound 687]
Test C (control value class, Alternaria sooty spot on cabbage) [1]: H (H shows more than 50% of control values)
Test E (control value class, brown rust on wheat) [2]: H (H shows more than 50% of control values)
Test B (control value class, gray mold on tomato) [3]: H (H shows more than 50% of control values)
Test G (control value class, downy mildew on vine) [4, 6]: H (H shows more than 50% of control values)
Test D (control value class, powdery mildew on barley) [5]: H (H shows more than 50% of control values)

CCn1c(-c2c(F)cc(F)cc2F)c(-c2ccccc2Cl)cc(I)c1=O [Compound 821]
Test C (control value class) [1, 12]: H (H shows more than 50% of control values)
Test E (control value class) [2, 13]: H (H shows more than 50% of control values)
Test B (control value class) [3, 14]: H (H shows more than 50% of control values)
Test G (control value class) [4, 15]: H (H shows more than 50% of control values)
Test D (control value class) [5, 16]: H (H shows more than 50% of control values)
